# PubChem BioAssay AID1347417 (National Center for Advancing Translational Sciences (NCATS), 2020)
# About 5,300 (4.4%) of roughly 120,000 compounds were called active. Inconclusive results, whose numbers are uncertain, are shown with a selection of clear calls. Calls come from the whole dose curve; as a rule, active = well fitted inhibition curve with a large enough effect; inconclusive = small, poorly fitted or top-dose-only effect; inactive = no such curve, though single readings can be large or run the other way. A potency beside an inconclusive call is a rough fit, not a confirmed value.
# Test: qHTS Primary assay for Inhibitors of Plasmodium falciparum Dd2 growth in vitro; note: nearly all actives have a fitted effect of over 65% in size;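 for activity, negative = inhibition: plate controls were DMSO vehicle for no effect and reference drug for full effect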
# Settings: P. falciparum Dd2 growth, SYBR Green, 72 h; activity, negative = inhibition: at 28.9 µM (top of the series) unless noted; series mostly up to 28.9 µM
# Outline: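 Infected erythrocytes (Dd2, 0.3% parasitemia, 2.5% hematocrit final) are added to compound in RPMI-1640/Albumax II medium, grown 72 h at 37C in low oxygen, then lysed with saponin/Triton-X containing SYBR Green and read by fluorescence.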
# Potency is the fitted concentration of half-maximal effect; tags give direction and shape of the fitted curve.
Structure (SMILES),"activity, negative = inhibition",Potency,outcome
CN(C)C(=O)[C@H]1CN2CCC1C[C@@H]2Cn1cc(C2(O)CCCCC2)nn1 (stereo not given in full),inactive: 12.4% [at 44.1 µM],–,–
O=C(CC1CCOC2(CCN(S(=O)(=O)c3ccccc3)CC2)C1)N1CCCC1 (stereo not given),inactive: -3.59%,–,–
O=C(Cn1ncc2c3ccccc3n(Cc3ccc(F)cc3)c2c1=O)NCc1ccccn1,–,"inconclusive: 12.6 µM [inhibitor, partial curve, poor fit]",–
Cc1ccc(C2Cn3cnc(C(=O)N4CCC(C(=O)NCCCc5ccccc5)CC4)c3CO2)cc1 (stereo not given),–,"inconclusive: 17.8 µM [inhibitor, single point]",–
CN(Cc1ccsc1)CC1(O)CCCN(CCCc2ccccc2)C1=O (stereo not given),–,"inconclusive: 20 µM [inhibitor, partial curve, poor fit]",–
COc1ccc(-c2cc(N3CCCC(NC(=O)c4ccc(C)nc4)C3)n[nH]2)cc1 (stereo not given),–,"inconclusive: 0.794 µM [inhibitor, full curve, poor fit]",–
CCCC1c2nccn2CCCN1C(=O)c1n[nH]c(=O)c2ccccc12 (stereo not given),–,"inconclusive: 20 µM [inhibitor, single point]",–
CCNC(=O)Nc1ccc2c(c1)CN(Cc1ccccc1OC)C(=O)C(C)O2 (stereo not given),–,–,inactive
O=C(Cn1cccc1-c1nc(-c2ccc3c(c2)OCO3)no1)N1CCN(c2ccccc2)CC1,inactive: 26.7%,–,–
COc1cccc(-c2cc(-c3ccccc3)nc3c(C)noc23)c1,–,active: 14.1 µM,–
CN(Cc1cc2n(n1)CCCNC2)CC1COCCO1 (stereo not given),inactive: -3.73%,–,–
CCc1noc(CC2CCOC3(CCN(S(=O)(=O)c4cccc(Cl)c4)CC3)C2)n1 (stereo not given),–,"inconclusive: 14.1 µM [inhibitor, single point]",–
O=c1cc(C2=CCOCC2)oc2c(-c3cccc4[nH]ccc34)nccc12,–,"inconclusive: 3.98 µM [inhibitor, full curve, poor fit]",–
COc1ccc2c(c1)C1(CCN(C(=O)NC3CCCCC3)C1)C(=O)N2 (stereo not given),–,"inconclusive: 14.1 µM [inhibitor, single point]",–
CNC(=O)c1ccc2c(c1)N(Cc1ccccc1Cl)C(=O)c1ccccc1S2,–,–,inactive
COc1ccc(CN2CCOC[C@H]2c2ncc(-c3ccc(OC)cc3)[nH]2)cc1,–,"inconclusive: 3.98 µM [inhibitor, full curve]",–
O=C1Nc2ccccc2CC12CN(CC1CCOCC1)C2,inconclusive: -32.4% [inhibitor] [at 44.1 µM],–,–
CC(C)(Oc1nn(CCOc2ccccc2)c2ccccc12)C(=O)NCC1CCOCC1,–,"inconclusive: 31.6 µM [inhibitor, single point]",–
CCCCS(=O)(=O)N1CCC(n2cc(CN3CCCC3)nn2)CC1,–,"inconclusive: 11.2 µM [inhibitor, single point]",–
Cc1cccc(C)c1-c1nc(C(=O)N2CCOCC2)n2ccccc12,–,"inconclusive: 12.6 µM [inhibitor, single point]",–

Structure (SMILES),"activity, negative = inhibition",Potency,outcome
COc1cccc(-c2noc(-c3cc(C(C)C)[nH]n3)n2)c1OC,–,"inconclusive: 17.8 µM [inhibitor, single point]",–
CC(C)CCn1c(=O)c2cccnc2n(CC(=O)Nc2ccccc2F)c1=O,–,"inconclusive: 12.6 µM [inhibitor, single point]",–
Cc1onc(C(=O)N2CCC(C)(c3noc(-c4ccncc4)n3)CC2)c1Cn1cc(Cl)cn1,–,"inconclusive: 0.0631 µM [inhibitor, full curve, poor fit]",–
COc1ccc(C2Cn3nnc(-c4noc(-c5ccccc5OC)n4)c3CO2)cc1 (stereo not given),–,–,inactive
COc1ccc(CNC(=O)C2CCCN(c3nnc(C)c4c(C)n(-c5ccc(C)cc5)nc34)C2)cc1 (stereo not given),–,"inconclusive: 11.2 µM [inhibitor, single point]",–
O=C(c1ccccc1)N1C[C@@H](c2ccc3c(c2)OCO3)[C@@H]2[C@H]1C1CCN2CC1,–,"inconclusive: 20 µM [inhibitor, single point]",–
CCc1cccc(C)c1Nc1c(-c2ccsc2)nc2ncccn12,–,"inconclusive: 17.8 µM [inhibitor, single point]",–
O=C(c1ccccc1)N1CCCC(CN2CCOCC2)CC1 (stereo not given),inactive: 0.187%,–,–
COc1ccc(NC(=O)N[C@H]2CO[C@H]3[C@@H]2OC[C@H]3OC(=O)Nc2cccc(C(C)=O)c2)cc1,–,"inconclusive: 5.01 µM [inhibitor, partial curve, poor fit]",–
CCOC(=O)c1cccc(NC(=O)NC(C)c2c(-n3cccc3)sc3c2CCN(C)C3)c1 (stereo not given),–,"inconclusive: 10 µM [inhibitor, single point]",–
O=C(Cc1ccccc1)Nc1ccnn1C1CCN(Cc2ccc3cccc(F)c3n2)CC1,–,"inconclusive: 11.2 µM [inhibitor, single point]",–
CN1CCN([C@@H]2[C@H](O)[C@H](CO)O[C@@H]2CNC(=O)c2ccccc2)CC1,–,"inconclusive: 3.98 µM [inhibitor, full curve, poor fit]",–
O=C([C@H]1C[C@H](Oc2cccnc2)CN1C(=O)Nc1ccccc1)N1CCOCC1,inactive: 0.407%,–,–
COc1cc2c(cc1OCc1ccccc1)N([S+](=O)([O-])c1cccnc1)CC21CCN(C)CC1,–,"inconclusive: 1.26 µM [inhibitor, full curve]",–
CN(Cc1ccc(-c2ccccc2)cc1)C(=O)c1ccccc1,–,"inconclusive: 31.6 µM [inhibitor, single point]",–
COC(=O)c1ccc(CN2C(=O)[C@@H]3C[C@@H](O)CN3C3(CN(CC4CCCCC4)C3)C2=O)cc1,–,–,inactive
COC(=O)c1ccc(Cn2c(SCc3ccc(F)cc3)nc3ccncc32)cc1,–,"inconclusive: 10 µM [inhibitor, partial curve, poor fit]",–
CC(C)c1nc2c(c(-c3ccc(Cl)cc3)n1)CCN(CC1CCCCC1)CC2,–,"inconclusive: 12.6 µM [inhibitor, single point]",–
Cc1nn(-c2ccccc2)c(Oc2ccccc2F)c1CCC(=O)NC(C)C,–,"inconclusive: 7.08 µM [inhibitor, partial curve]",–
COc1cc(NC(=O)c2cc3c(N4CCCC4)nc(C)cn3n2)cc(OC)c1OC,–,"inconclusive: 1.12 µM [inhibitor, partial curve, poor fit]",–
